Experimental data from a compilation of properties of binary mixtures (doi:10.1021/acs.jced.9b00738).
Some of these densities may be calculated back from excess volumes.

Test: xn = mol fraction of the nth substance listed
Settings: 100 kPa

CCOC(=O)OCC + CCCC[N+]1(C)CCCC1.O=S(=O)([N-]S(=O)(=O)C(F)(F)F)C(F)(F)F
x2 = 0
Settings | mass density [kg/m3]
293.15 K | 974.6
298.15 K | 969
303.15 K | 963.2
308.15 K | 957.7
313.15 K | 951.9
318.15 K | 946

CCCC[N+]1(C)CCCC1.O=S(=O)([N-]S(=O)(=O)C(F)(F)F)C(F)(F)F + CCOC(=O)OCC
mass density [kg/m3]
Settings | 293.15 K | 298.15 K | 303.15 K | 308.15 K | 313.15 K | 318.15 K | 323.15 K
x1 = 0.0251 | 1002.4 | – | 991.3 | – | 980.2 | 974.5 | 968.7
x1 = 0.0556 | – | 1027.9 | 1022.2 | 1016.9 | 1011.3 | 1005.6 | 1000
x1 = 0.1001 | – | 1067.3 | 1061.7 | 1056.4 | – | 1045.5 | –
x1 = 0.1506 | 1112.1 | 1106.9 | 1101.5 | 1096.5 | 1091.1 | 1085.9 | 1080.6
x1 = 0.2 | – | 1141.5 | – | 1131 | 1126 | 1120.5 | 1115.2
x1 = 0.2973 | 1202.1 | 1197.1 | 1192 | 1187.2 | 1182.3 | 1177.3 | 1172.4
x1 = 0.349 | 1226.8 | 1222 | 1217 | 1212.3 | 1207.5 | 1202.6 | 1197.9
x1 = 0.4 | 1248.5 | 1243.8 | 1238.7 | 1234.2 | 1229.5 | 1224.7 | 1220.1
x1 = 0.4998 | – | 1280.8 | 1276 | – | 1266.8 | 1262.1 | 1257.4
x1 = 0.6002 | 1316.2 | 1311.4 | 1306.6 | 1302.1 | 1297.5 | 1293 | 1288.5
x1 = 0.6985 | 1341.1 | 1336.6 | 1332 | 1327.7 | 1323.1 | 1318.5 | 1313.8
x1 = 0.8006 | 1363.2 | 1358.8 | 1354.1 | 1349.7 | 1345.3 | 1340.8 | –
x1 = 0.8934 | – | 1376.2 | 1371.7 | – | 1363.1 | 1358.6 | 1354.2
x1 = 1 | 1398.4 | 1393.8 | 1389.4 | 1385.3 | 1380.9 | 1376.5 | 1372.2
